# Measured values: the supplement of paper PMC8728848
# Some of the results follow.
# B1: LecRKVI.2 (protein)
# chain: RTTTNFAFRGFNGNQSKIRIEGAAMIKPDGLLRLTDRKSNVTGTAFYHKPVRLLNRNSTNVTIRSFSTSFVFVIIPSSSSNKGFGFTFTLSPTPYRLNAGSAQYLGVFNKENNGDPRNHVFAVEFDTVQGSRDDNTDRIGNDIGLNYNSRTSDLQEPVVYYNNDDHNKKEDFQLESGNPIQALLEYDGATQMLNVTVYPARLGFKPTKPLISQHVPKLLEIVQEEMYVGFTASTGKGQSSAHYVMGWSFSSGGERPIADVLILSELPPPPPNKAKKEGLNS
# Key:
# Test in all cases: glycan array binding signal (z-score within array); higher = stronger binding
# Conditions in all cases: glycan notation: IUPAC condensed, linker removed
# [1] = biological target: Neu5Ac(a2-6)Gal(b1-4)GlcNAc(b1-6)GalNAc
# In short: (§1)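 The binding signal is a Z-score computed within each array. Data were drawn from 3228 arrays in the Consortium for Functional Glycomics database, restricted to those with a known protein sequence. Scores were averaged over arrays of the same protein sequence at different concentrations or buffers, and over linkers, and negative values can be taken as non-binding.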
# [2] = biological target: Neu5Ac(a2-6)Gal(b1-4)GlcNAc(b1-6)[Gal(b1-3)GlcNAc(b1-3)]Gal(b1-4)Glc
# In short: as §1
# [3] = biological target: Neu5Ac(a2-6)Gal(b1-4)GlcNAc(b1-6)[Gal(b1-3)]GalNAc
# In short: as §1
# [4] = biological target: Neu5Ac(a2-6)Gal(b1-4)GlcNAc6S
# In short: as §1
# [5] = biological target: Neu5Ac(a2-6)GalNAc
# In short: as §1
# [6] = biological target: Neu5Ac(a2-6)GalNAc(b1-4)GlcNAc
# In short: as §1
# [7] = biological target: Neu5Ac(a2-6)GalNAc(b1-4)GlcNAc6S
# In short: as §1
# [8] = biological target: Neu5Ac(a2-6)GlcNAc(b1-4)GlcNAc
# In short: as §1
# [9] = biological target: Neu5Ac(a2-6)GlcNAc(b1-4)GlcNAc(b1-4)GlcNAc
# In short: as §1
# [10] = biological target: Neu5Ac(a2-8)Neu5Ac
# In short: as §1
# [11] = biological target: Neu5Ac(a2-8)Neu5Ac(a2-3)Gal(b1-3)GalNAc(b1-4)[Neu5Ac(a2-3)]Gal(b1-4)Glc
# In short: as §1
# [12] = biological target: Neu5Ac(a2-8)Neu5Ac(a2-3)Gal(b1-3)GalNAc(b1-4)[Neu5Ac(a2-8)Neu5Ac(a2-3)]Gal(b1-4)Glc
# In short: as §1
# [13] = biological target: Neu5Ac(a2-8)Neu5Ac(a2-3)Gal(b1-4)Glc
# In short: as §1
# [14] = biological target: Neu5Ac(a2-8)Neu5Ac(a2-3)Gal(b1-4)GlcNAc
# In short: as §1
# [15] = biological target: Neu5Ac(a2-8)Neu5Ac(a2-3)[Gal(b1-3)GalNAc(b1-4)]Gal(b1-4)Glc
# In short: as §1
# [16] = biological target: Neu5Ac(a2-8)Neu5Ac(a2-3)[GalNAc(b1-4)]Gal(b1-4)Glc
# In short: as §1
# [17] = biological target: Neu5Ac(a2-8)Neu5Ac(a2-8)Neu5Ac
# In short: as §1
# [18] = biological target: Neu5Ac(a2-8)Neu5Ac(a2-8)Neu5Ac(a2-3)Gal(b1-4)Glc
# In short: as §1
# [19] = biological target: Neu5Ac(a2-8)Neu5Ac(a2-8)Neu5Ac(a2-3)[Gal(b1-3)GalNAc(b1-4)]Gal(b1-4)Glc
# In short: as §1
# [20] = biological target: Neu5Ac(a2-8)Neu5Ac(a2-8)Neu5Ac(a2-3)[GalNAc(b1-4)]Gal(b1-4)Glc
# In short: as §1
# [21] = biological target: Neu5Ac(a2-8)Neu5Ac(a2-8)Neu5Ac(a2-8)Neu5Ac(a2-3)[GalNAc(b1-4)]Gal(b1-4)Glc
# In short: as §1
# [22] = biological target: Neu5Ac(a2-8)Neu5Gc(a2-3)Gal(b1-4)GlcNAc
# In short: as §1
# [23] = biological target: Neu5Ac(b2-6)Gal(b1-4)GlcNAc
# In short: as §1
# [24] = biological target: Neu5Ac(b2-6)GalNAc
# In short: as §1
# [25] = biological target: Neu5Ac9Ac(a2-3)Gal(b1-3)GlcNAc
# In short: as §1
# [26] = biological target: Neu5Ac9Ac(a2-3)Gal(b1-4)GlcNAc
# In short: as §1
# [27] = biological target: Neu5Ac9Ac(a2-6)Gal(b1-4)GlcNAc
# In short: as §1
# [28] = biological target: Neu5Gc(a2-3)Gal(b1-3)GlcNAc
# In short: as §1
# [29] = biological target: Neu5Gc(a2-3)Gal(b1-3)[Fuc(a1-4)]GlcNAc
# In short: as §1
# [30] = biological target: Neu5Gc(a2-3)Gal(b1-4)Glc
# In short: as §1
# [31] = biological target: Neu5Gc(a2-3)Gal(b1-4)GlcNAc
# In short: as §1
# [32] = biological target: Neu5Gc(a2-3)Gal(b1-4)GlcNAc(b1-3)Gal(b1-4)GlcNAc(b1-2)Man(a1-3)[Neu5Gc(a2-3)Gal(b1-4)GlcNAc(b1-3)Gal(b1-4)GlcNAc(b1-2)Man(a1-6)]Man(b1-4)GlcNAc(b1-4)GlcNAc
# In short: as §1
# [33] = biological target: Neu5Gc(a2-3)Gal(b1-4)[Fuc(a1-3)]GlcNAc
# In short: as §1
# [34] = biological target: Neu5Gc(a2-6)Gal(b1-4)GlcNAc
# In short: as §1
# [35] = biological target: Neu5Gc(a2-6)GalNAc
# In short: as §1
# [36] = biological target: Neu5Gc(a2-8)Neu5Ac(a2-3)Gal(b1-4)GlcNAc
# In short: as §1
# [37] = biological target: Neu5Gc(a2-8)Neu5Gc(a2-3)Gal(b1-4)GlcNAc
# In short: as §1
# [38] = biological target: Neu5Gc(a2-8)Neu5Gc(a2-3)Gal(b1-4)GlcNAc(b1-3)Gal(b1-4)GlcNAc
# In short: as §1
binder,measurement,setting,value
B1,glycan array binding signal (z-score),[1],-0.192
same,glycan array binding signal (z-score),[2],-0.324
same,glycan array binding signal (z-score),[3],-0.368
same,glycan array binding signal (z-score),[4],-0.399
same,glycan array binding signal (z-score),[5],-0.384
same,glycan array binding signal (z-score),[6],-0.335
same,glycan array binding signal (z-score),[7],-0.355
same,glycan array binding signal (z-score),[8],-0.358
same,glycan array binding signal (z-score),[9],-0.394
same,glycan array binding signal (z-score),[10],-0.272
same,glycan array binding signal (z-score),[11],-0.35
same,glycan array binding signal (z-score),[12],-0.34
same,glycan array binding signal (z-score),[13],-0.443
same,glycan array binding signal (z-score),[14],-0.452
same,glycan array binding signal (z-score),[15],-0.145
same,glycan array binding signal (z-score),[16],0.917
same,glycan array binding signal (z-score),[17],-0.317
same,glycan array binding signal (z-score),[18],-0.322
same,glycan array binding signal (z-score),[19],-0.237
same,glycan array binding signal (z-score),[20],-0.018
same,glycan array binding signal (z-score),[21],0.069
same,glycan array binding signal (z-score),[22],-0.403
same,glycan array binding signal (z-score),[23],-0.393
same,glycan array binding signal (z-score),[24],-0.367
same,glycan array binding signal (z-score),[25],0.013
same,glycan array binding signal (z-score),[26],-0.222
same,glycan array binding signal (z-score),[27],-0.349
same,glycan array binding signal (z-score),[28],-0.31
same,glycan array binding signal (z-score),[29],-0.432
same,glycan array binding signal (z-score),[30],1.38
same,glycan array binding signal (z-score),[31],-0.244
same,glycan array binding signal (z-score),[32],-0.378
same,glycan array binding signal (z-score),[33],-0.355
same,glycan array binding signal (z-score),[34],-0.356
same,glycan array binding signal (z-score),[35],-0.305
same,glycan array binding signal (z-score),[36],-0.415
same,glycan array binding signal (z-score),[37],-0.395
same,glycan array binding signal (z-score),[38],-0.436
